Among all 43,000 compounds or so, about 200 (0.47%) were called active. About 12% were inconclusive and are not listed. The call rests on the fitted dose curve; in most records, active means well fitted cell-killing curve with a large enough effect; inconclusive means small, poorly fitted or top-dose-only effect, or effect the other way; inactive means flat fitted curve, though single readings scatter. This is one part of the list.
assay: Cell viability qHTS assay in S16 Pmp22-F2sN cells; details: S16 Pmp22-F2sN Schwann cells (luciferase reporters placed in the Pmp22 gene) viability, CellTiter-Glo, 24 h; series mostly up to 57.5 µM; activity change, negative = cytotoxicity: at the top concentration; further: nearly all actives have a fitted effect of over 65% in size
In short: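 CellTiter-Glo counter-screen, qHTS, 1536-well. Cells: S16(c9) Pmp22-F2sN, 500-1,000/well in DMEM + 10% FBS. Cpd 23 nL pin transfer, 24 h, 37C/5% CO2. Read: luminescence, CCD imager.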
On the % scale 0 is the no-effect control and ±100 the full control effect.

Compound	activity change, negative = cytotoxicity
COc1ccccc1NC(=O)Cn1c(SCC(=O)N(C)c2ccccc2)nc2ccccc21	inactive: 15.6%
Cc1ccc(NS(=O)(=O)c2ccc3c(c2)n(C)c(=O)n3C)cc1C	inactive: -1.42%
Cc1ccc(S(=O)(=O)NC2(C(F)(F)F)NC(=O)N(CCc3ccccc3)C2=O)cc1 (stereo unspecified)	inactive: 16.7%
COc1cccc2c1cc1c(=O)n(CC(=O)N3CCN(c4ccc(Cl)cc4)CC3)nc(C)n12	inactive: -2.41%
Fc1ccc(Nc2ncnc3onc(-c4cccc(Cl)c4)c23)c(F)c1	inactive: 0.704%
Cn1c(=O)c2c(-c3cccc(Br)c3)n(C(C)(C)CO)cc2n(C)c1=O	inactive: -2.31%
CCC(C(=O)NCc1ccco1)n1nc(C)c2c(C)n(-c3ccc(C)cc3)nc2c1=O (stereo unspecified)	inactive: -6.32%
Cc1cccc(C(=O)NCC(=O)OCc2cc(=O)n3nc(CC(C)C)sc3n2)c1	inactive: 12.7%
COc1cccc(C(=O)N2CCN(CCc3ccncc3)CC2)c1	inactive: 2.53%
CN(C)c1ccc(CNC(=O)c2cccc(NC(=O)N3CCSc4ncccc43)c2)cc1	inactive: -14.9%
O=C(Nc1ccccc1Cl)C1CCN(c2nc3ccccc3nc2C(F)(F)F)CC1	inactive: -0.203%
O=C(NCCn1cc(SCc2ccccc2Cl)c2ccccc21)c1cccs1	inactive: -3.08%
CCOc1ccccc1NC(=O)CSc1nnc2[nH]c(=O)cc(-c3ccccc3)n12	inactive: -5.84%
COc1ccc(NC(=O)Cn2cnc3sc(C)c(S(=O)(=O)N4CCN(c5ccccc5OC)CC4)c3c2=O)cc1OC	inactive: 3.68%
CCC1CN(C(=O)NCc2ccc(C)cc2)c2cc(Cl)ccc2O1 (stereo unspecified)	inactive: -8.59%
CCN1CCN(Cc2nc3cc(NC(=O)c4cc(OC)c(OC)c(OC)c4)ccc3n2CC)CC1	inactive: 7.08%
Cc1ccc(CNC(=O)N2CCC(CN3CCC(C)CC3)CC2)cc1	inactive: 3.17%
COc1ccc(S(=O)(=O)n2nc(-c3ccco3)nc2NCc2ccc(N(C)C)cc2)cc1	inactive: -16.9%
COc1ccc(S(=O)(=O)c2cn(CC(=O)Nc3cc(C)ccc3C)c3ccccc3c2=O)cc1	inactive: 20.9%
Cc1ccc(C)c(N2CCN(C(=O)Cn3ncc4c(=O)oc5ccccc5c43)CC2)c1	inactive: 6.74%
COc1cc(OC)cc(-c2nc3nc(C)c(CCC(=O)Nc4ccc(C)c(C)c4)c(C)n3n2)c1	inactive: 26.6%
CCc1ccccc1NC(c1nnc(-c2cccc(F)c2)o1)c1ccc(F)cc1Cl (stereo unspecified)	inactive: 3.06%
CC(C)c1ccc(NC(=O)CN2C(=O)COc3ccc(S(=O)(=O)N4CCCCC4)cc32)cc1	inactive: -14.4%
Cc1ccc2scc(N3CCc4ccccc4C3)c(=O)c2c1	inactive: -5.15%

Compound	activity change, negative = cytotoxicity
Cc1ccc(-n2nc3c(=O)n(CCCC(=O)NCc4ccccc4C)nc(C)c3c2C)cc1	inactive: 3.11%
COCCNC(=O)c1c(-c2ccccc2)c(-c2ccccc2)nn(C)c1=O	inactive: -6.01%
Cc1ccc([N+](=O)[O-])cc1S(=O)(=O)N1CCn2cccc2C1c1ccccc1F (stereo unspecified)	inactive: 1.82%
O=C(NCc1cccn1Cc1ccccc1)Nc1cccc(C(F)(F)F)c1	inactive: -9.63%
CCOC(=O)c1c(C)c(-c2ccccc2)n(CC(=O)NCc2cccc(OC)c2)c1C	inactive: 13.5%
Cn1c(=O)oc2cc(S(=O)(=O)N3CCC(C(=O)NCc4ccccc4)CC3)ccc21	inactive: -2.49%
CN(Cc1ccc(F)cc1)S(=O)(=O)c1nnc(NC(=O)c2ccccc2Br)s1	inactive: -16.6%
O=C(Cn1c(=O)n(Cc2ccc(Cl)cc2)c(=O)c2cccnc21)Nc1ccccc1C(F)(F)F	inactive: 22.2%
Cc1ccc(NC(=O)CNC(=O)Cn2c(C)cc3ccccc3c2=O)cc1F	inactive: 0.689%
CCOC(=O)c1cnc2cc(C(F)(F)F)ccc2c1N1CCN(c2cccc(Cl)c2)CC1	inactive: 3.57%
CCOc1cc(CNC(=O)c2ccc(Cn3c(=O)c4cccn4c4cccnc43)cc2)ccc1OC	inactive: 8.74%
Cc1ccc(NC(=O)CSc2nc3ccc(NC(=O)c4cccs4)cc3s2)cc1	inactive: 12.5%
CCOc1cccc(C2c3[nH]c4ccccc4c3CCN2C(=O)c2ccccc2F)c1 (stereo unspecified)	inactive: 3.42%
CC(=O)c1ccc(NC(=O)Cn2cnc3nc4c(cc3c2=O)CC(C)CC4)cc1 (stereo unspecified)	inactive: -13.3%
CCOc1ccccc1C(=O)Nc1ccc(S(=O)(=O)Nc2onc(C)c2C)cc1	inactive: 8.06%
CCOC(=O)c1c(SCC(=O)Nc2nc3ccccc3s2)nc(=O)[nH]c1C	inactive: 0.426%
CCC(Sc1nnc(C)n2c1cc1sccc12)C(=O)Nc1ccccc1F (stereo unspecified)	inactive: -10.9%
CCCCC(=O)Oc1ccc2oc(-c3ccc(OC)cc3)cc(=O)c2c1	inactive: 5.37%
Cc1cccc(-c2nc3scc(CCNS(=O)(=O)c4c(C)noc4C)n3n2)c1	inactive: 4.18%
Cc1ccc(S(=O)(=O)c2nnn3c2nc(NC(C)c2ccccc2)c2sccc23)cc1 (stereo unspecified)	inactive: -7.25%
O=C(NCc1cccn1Cc1ccccc1)Nc1ccc(Br)cc1F	inactive: -3.18%
COc1cccc(N2CCN(c3ncnc4c3c(-c3ccccc3)cn4-c3ccc(C)cc3)CC2)c1	inactive: 15.6%
CCCc1cc(=O)[nH]c2nnc(SCC(=O)Nc3ccc(OC)cc3)n12	inactive: -4.44%
O=C(Nc1ccccc1C(=O)OCc1cc(=O)n2ccsc2n1)c1ccc(Cl)cc1	inactive: 10.9%

Compound	activity change, negative = cytotoxicity
COc1ccccc1CNC(=O)CCNS(=O)(=O)c1ccc2c(c1)CCCC(=O)N2	inactive: 22.9%
CCOC(=O)c1c(C)[nH]c(C)c1S(=O)(=O)NCC(=O)NCc1ccc(C)cc1	inactive: 18.2%
Cc1ccc(Cl)cc1NC(=O)Nc1nnc(N2CCCC(C)C2)s1 (stereo unspecified)	inactive: -1.06%
CCOc1ccc(N2CC(NC(=O)c3ccc(S(=O)(=O)N4CCCC4)cc3)CC2=O)cc1 (stereo unspecified)	inactive: -0.772%
Cc1ccc(-c2n[nH]c3c2C(c2cccc(O)c2)N(c2ccc(C(=O)O)cc2)C3=O)cc1 (stereo unspecified)	inactive: 12%
CCN(CC)CCNC(=O)c1ccc(CSc2nc3ccncc3n2Cc2cccc(F)c2)cc1	inactive: -5.43%
CCOc1ccc(-c2cc3c(=O)n(Cc4nc(-c5ccc(OC(C)C)cc5)oc4C)ccn3n2)cc1Cl	inactive: 3.36%
Cc1ccccc1-c1nc(CN2CCC(C(=O)NCCc3ccccc3)CC2)c(C)o1	inactive: 12.8%
O=C(CCCn1c(=O)c2ccccc2n(CC(=O)Nc2cccc(C(F)(F)F)c2)c1=O)NCc1ccc2c(c1)OCO2	inactive: 1.47%
O=C(Cn1nc(N2CCN(c3ccccc3)CC2)ccc1=O)Nc1ccc(F)cc1F	inactive: -8.49%
COc1ccc(CNC(=O)C2CCCN(C(=O)N3CCOc4ccccc43)C2)cc1 (stereo unspecified)	inactive: -1.93%
COc1cc(C2SC[C@H]3C(=O)N(c4ccccc4)C(=O)N23)cc(OC)c1OC (stereo partly specified)	inactive: 3.22%
Cc1cc2ccccc2n1CCNC(=O)c1cc(C(F)(F)F)cc(C(F)(F)F)c1	inactive: 3.03%
COCCn1c(SCC(=O)c2ccc(C)cc2C)nc2cc(C(=O)NC3CCCC3)ccc2c1=O	inactive: 25.1%
Cn1nnc2c(N3CCN(c4ccccc4)CC3)ncnc21	inactive: -12.5%
CC(C)c1ccc(NC(=O)c2cc(S(=O)(=O)N3CCCCC3)cn2C)cc1	inactive: 6.57%
COc1ccccc1CNc1nc2ccc(Cl)cc2n2cnnc12	inactive: -0.392%
CC(=O)c1c(C)oc2c(Br)cc(NS(=O)(=O)c3ccc(Br)cc3)cc12	inactive: 8.87%
Cc1ccccc1OC(=O)CSc1nnc(-c2ccc3c(c2)OCO3)o1	inactive: -5.31%
Cc1ccc(Cl)cc1N1CCN(C(=O)C2CCN(S(=O)(=O)c3cccc4nonc34)CC2)CC1	inactive: -0.441%
COC(=O)c1cc(NC(=O)c2nn(C)c3c2CSc2ccccc2-3)cc(C(=O)OC)c1	inactive: 10.8%
CC(C)COc1ccc(C2=NC(c3ccncc3)=Nc3ccc(F)cc3N2)cc1	inactive: -7.21%
CCOc1ccc(-n2c(=O)c3c(C)c(C(=O)N(C)C)sc3n(CC(=O)Nc3c(C)cc(C)cc3C)c2=O)cc1	inactive: -0.248%
Cc1cccc(NC(=O)CSc2nc3c([nH]c4ccccc43)c(=O)n2C)c1	inactive: 11.3%

Compound	activity change, negative = cytotoxicity
Cc1ccc(CN(C(=O)COc2ccc(C)c(C)c2)C2CCS(=O)(=O)C2)o1 (stereo unspecified)	inactive: -4.03%
CCOc1ccc(S(=O)(=O)N2CCN(c3ccccc3)CC2)cc1C(N)=O	inactive: 1.87%
CC(C)N(C(=O)Cn1cc(S(=O)(=O)Cc2ccc(C(F)(F)F)cc2)c2ccccc21)C(C)C	inactive: -3.47%
Cc1ccc(Nc2c(-c3ccccc3O)nc3ccc(Br)cn23)cc1	inactive: -2.65%
COc1ccc(S(=O)(=O)Nc2cc(-c3cn4ccccc4n3)ccc2C)cc1	inactive: 0.967%
Cc1ccc(CC(=O)Nc2c(C(=O)N3CCN(c4ccccc4F)CC3)oc3ccccc23)cc1	inactive: -6.43%
CCc1cccc(CC)c1NC1=NS(=O)(=O)c2ccccc21	inactive: -13.4%
CCOc1ccccc1NC(=O)C(C)Sc1nc2c(c(=O)[nH]1)CCCC2 (stereo unspecified)	inactive: -9.9%
Cc1ccc(NS(=O)(=O)c2ccc3c(c2)NC(=O)CCS3)c(Br)c1	inactive: 0.637%
Cc1nn(C)c2c1c(C(F)(F)F)cc(=O)n2CC(=O)NCc1ccccc1Cl	inactive: 8.77%
Cc1cc(F)ccc1NC(=O)c1sc2nc(-c3cccs3)ccc2c1N	inactive: 18.8%
CN1C(C(=O)Nc2ccc(F)cc2F)=CC(c2cccs2)=NS1(=O)=O	inactive: -6.42%
CCn1nc(-c2ccccc2)c(-c2ccccc2)c(C(=O)OCCOC)c1=O	inactive: 0.453%
Cc1ccc2c(=O)cc(C(=O)Nc3nnc(C)s3)oc2c1	inactive: 0.893%
CCOC(=O)C1=C(CN2CCC(C(=O)OCC)CC2)NC(=O)NC1c1ccc(Cl)cc1 (stereo unspecified)	inactive: -2.69%
CCOC(=O)c1ccccc1NC(=O)CCc1c(C)nc2ncnn2c1C	inactive: 5.48%
CCOCCCNC(=O)CCc1nnc2ccc(N3CCN(c4cccc(OC)c4)CC3)nn12	inactive: -8.78%
Cc1ccc(NCc2nnc3n2CCCCC3)cc1Cl	inactive: -3.2%
Cc1ccc(-c2ccc(=O)n(C(C)C(=O)Nc3ccccc3Cl)n2)cc1C (stereo unspecified)	inactive: 10.2%
COc1cccc(NC(=O)c2cn(C3CCCCC3)c(=O)c3c2c2ccccc2n3C)c1	inactive: -2.3%
CC1CCc2nc3ncn(CC(=O)Nc4cccc(C#N)c4)c(=O)c3cc2C1 (stereo unspecified)	inactive: -3.01%
COc1ccc(S(=O)(=O)N(CC(=O)N2CCC(C)CC2)c2ccc(C)cc2)cc1	inactive: 16.1%
COC(=O)c1ccc(Cn2c(SCc3cccc(C)c3)nc3ccncc32)cc1	inactive: -3.85%
Cc1cc(C)c(/C=C/c2onc(C)c2S(=O)(=O)N2CCC(C(=O)N3CCN(c4ccccc4)CC3)CC2)c(C)c1	inactive: 0.781%

— PubChem BioAssay AID1508642 (National Center for Advancing Translational Sciences (NCATS), 2021)
